Reference: the supplement of paper PMC11417369
The other results are listed elsewhere or left out.

tested on: PfHDP1 homeodomain (GST-tagged); assay: gcPBM binding intensity (ln(normalized median fluorescence intensity)); higher = stronger DNA binding
Procedure, shortened: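 Alexa488 anti-GST antibody, scanned at 488 nm, detected GST-tagged P. falciparum DNA-binding domains that had been expressed in E. coli and incubated for 1 h on an Agilent 4 × 180k array. The array carried primer-extended double-stranded 36-bp intergenic genomic probes and negative controls. Binding intensity is the highest Masliner-normalised natural-log median intensity across replicate spots of either orientation of each probe.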

| Sequence | gcPBM binding intensity (ln) |
| --- | --- |
| TATTGAAAGTGAATTATAACATTAAAAATATATATA [TGCATGCA_negctrl_site566] | 6.21 |
| CAATATAAAAGACACACACACAAACATATATTTATA [CACACA_site7697] | 6.91 |
| TGAATATGTAAATGCACACCAAAAAAAAAAAAAAAA [CACACA_site3566] | 9.97 |
| TTCTTAATACAAATATGTACATATATATATATATAT [XGTACX_site757] | 9.41 |
| ACGAATATAGGATGTTTGCACTGTACCAATAAATGA [GTGCAC_site9808] | 8.31 |
| ACCTATTTCAAACACACACACACACCCACAAACATA [CACACA_site977] | 7.37 |
| TCATTTTAAGGAAAAAGTACAAAATAATATGTTCCT [XGTACX_site1903] | 6.11 |
| AATAGAAAAAAAAAATGTACAAAATGTTTATAAAAA [XGTACX_site4635] | 6.34 |
| GATGTGTAAATAAGGATATATAACAATCAACAAAAC [XGTACX_negctrl_site494] | 7.11 |
| AAATGAATATAAAATATACACACTTATATATTGAAT [CACACA_site202] | 6.28 |
| AAATTACCCTTGTGTACACATATATTATCTGTATTA [CACACA_site4514] | 8.02 |
| AAAAAATTTTAATATGCATGTAATTTTGCTTTTTCA [TGCATGCA_site1044] | 6.19 |
| TAATATAGGGGTGTTCAAATAAATTTTGTTATTTTT [CACACA_negctrl_site1203] | 6.76 |
| AGCACGCACAGACACACACACATATTTATATTTATA [CACACA_site6291] | 7.62 |
| AAATAGAAAAAATATACACACACTTATTAAATAAAA [CACACA_site3313] | 6.49 |
| AAATAATAAAGTATAACACACATATTTATTTATATA [CACACA_site7822] | 6.15 |
| AAAATTAAAAAAATATGTACTTATGGGTAACATCAT [XGTACX_site5548] | 5.92 |
| AATATTCAATATAAAGTGCATTATTGTGCCCCTAAT | 8.68 |
| GTTATACATTTGAAAAGTACTCATGATTTTTTTTTT [XGTACX_site8177] | 6.71 |
| ATAAAAATCAAAAAAAATACATAATAGTAATAATAA [GTGCAC_negctrl_site481] | 6.42 |
| TTTTTATTGTTATACTTATATTATTTTATGATTAAA [XGTACX_negctrl_site262] | 6.54 |
| ATTATATAATAATGCATGCACCTTATTTTCATTTCA [GTGCAC_site9922] | 8.28 |

| Sequence | gcPBM binding intensity (ln) |
| --- | --- |
| TTTCTTTTTTTGGGCACACAAAATTTTCTCATTTTA [CACACA_site68] | 6.65 |
| AAAATAAAAAAAATGAATTAGTTAAATGAAAAATAA [CACACA_negctrl_site1294] | 6.31 |
| TGAATAAATAAACACACACACATATATATATCTGTA [CACACA_site4184] | 6.44 |
| ATAAAATTATTATATACATGCAAAATTAATATATTG [TGCATGCA_site507] | 6.28 |
| TATCTTCATATATGGTGTACAGATTTTTTTTTTTTT [XGTACX_site5545] | 6.5 |
| TAAACAAATAAATATTGTACATTTTTTCCTTTTAAT [XGTACX_site5594] | 6.08 |
| AAGGATAATATATTAGAACACACATATATATGTAAA [CACACA_site7942] | 6.69 |
| TTTATATAAAATTATTGTACAGTTTTAATATTTTAA [XGTACX_site6807] | 6.4 |
| TACATACACAAATACACACACAAATACATACACAAA [CACACA_site704] | 7.33 |
| ATATATTTATTTATATGTACATATTATATATTATAG [XGTACX_site3371] | 6.58 |
| GATTATACAAAATATACACACGTGTACAGAAATATT [CACACA_site8305] | 6.79 |
| TTATATTAATTTTGTTGTACTATTTGTGCATTAAAT [XGTACX_site4790] | 10.8 |
| AAGATATGAACATTTTGTACTTAAAAATTCAATATT [XGTACX_site7103] | 5.95 |
| CACAGACACGGACACACACACATATATAATATATAT [CACACA_site4495] | 7.17 |
| TACAATCCATATTGTTGTACATTTATAAAATTTACA [XGTACX_site3053] | 6.15 |
| CAATGGTACATACATACACACACACTAATAAAAAAA [CACACA_site8450] | 6.8 |
| GTATATATATAAGAAGAAATATATAAATAAAATATA [CACACA_negctrl_site503] | 6.41 |
| ATTCGTCACATTTTTTGATATATATATATATATATA [CACACA_negctrl_site1785] | 9.46 |
| AATATATAAATGTTGTGTACTAAGCAATATATTTTA [XGTACX_site2483] | 6.59 |
| TAAAAAATATAAACTGCACACACACTAATAAAGAAA [CACACA_site8119] | 7.18 |
| GCTTATTAATATCATACACACATAGATATATTTATA [CACACA_site3104] | 6.79 |
| CTATTATCGGTTCCTACACACAAATATATATGTCTA [CACACA_site3579] | 7.04 |

| Sequence | gcPBM binding intensity (ln) |
| --- | --- |
| ATATAGTTGTCATATTGTACACTTTAGGGTTGGTTA [XGTACX_site7339] | 6.64 |
| AGTTGGATACGAAGATGTACAATAATAATAATTAAG [XGTACX_site3561] | 6.83 |
| ACATTTTATATATGTAGTACATATTATAGATAATTT [XGTACX_site1976] | 6.41 |
| TCACTATAATAATTTACACACATTTTAAGAAAATGG [CACACA_site5867] | 6.46 |
| TATTTTATTTTTTTATGTACACAAAAAAAAAAAAAA [XGTACX_site945] | 6.58 |
| ATCAAAAACATACCTACACACACAATATGTATATAT [CACACA_site9171] | 6.59 |
| TATTATGTTTATTAAACATGCATATATTTATTTATA [TGCATGCA_site187] | 6.55 |
| ATAAATGTTATGCATACACACTTTATACCTATTTAA [CACACA_site5967] | 6.98 |
| AATCCTTACAGACACACACACACGAATAAATAAAAA [CACACA_site480] | 6.93 |
| TTATAATTTTTGAGCACACACAAGCATATATATATA [CACACA_site1798] | 8.98 |
| TATATATGTATATGTGTGCACCTTATTTCTTTTATT [GTGCAC_site9513] | 9.55 |
| TATGTATTATCAAAAAGTACTAAAAAAAAATAATAA [XGTACX_site4703] | 6.54 |
| ATAGCAATAATGGAAAGTACAAAAAAACTTGTTATA [XGTACX_site8518] | 6.43 |
| TATATATATATATATAAGCTTATAATAAAACAAAAA [XGTACX_negctrl_site568] | 9.36 |
| TGTATTAATAAAAATACACACATCATATTATATAAA [CACACA_site3534] | 6.43 |
| CCTTTTAAGAGTTGCACACGTACAAAAAAAAAAAAA [CACACA_site3492] | 9.57 |
| ACACATAAATGTATATATATATAAATATATGTATGT [CACACA_negctrl_site1532] | 6.48 |
| GGCGATATAGAACTACGTACTTATACAAATTATAAT [XGTACX_site2307] | 6.48 |
| AATAATAAAAAATACGCACACATGTAAACGTATGTT [CACACA_site3336] | 6.99 |
| GTATATATATATTTATGTACTTACCTACATAATTAT [XGTACX_site4435] | 6.63 |
| TAAATAAATTTGCACTGTACGCAAAAAAAAAAAAGA [XGTACX_site8781] | 9.28 |
| AAAGGGGAGATATGAACACACAAAAAAAAAATATAT [CACACA_site7378] | 6.5 |

| Sequence | gcPBM binding intensity (ln) |
| --- | --- |
| AGAAAGGATATAAGCGTAGCTATATCATAAAAAATG [GTGCAC_negctrl_site332] | 6.23 |
| AATATTTACAGACATGCGCACACATAAATAAATAAT [CACACA_site8760] | 7.33 |
| AAATAAAATTTTTGTTGTACTTATTTTTAGTATACT [XGTACX_site4254] | 6.34 |
| TATATATATTTTAAATGTACTTATAAATTACCACTT [XGTACX_site5673] | 6.36 |
| AAAAATAAAATATATATATATATATATATATATATA [CACACA_negctrl_site58] | 9.46 |
| AATAAATACATACATACATGCATACATATATCTCAA [TGCATGCA_site1040] | 6.53 |
| TATTTTTATATATATACACACTTACAGATATATATT [CACACA_site5905] | 6.94 |
| TGAAAAAAAAAATGCACACGCATACATATAATATGT [CACACA_site641] | 9.34 |
| AAACATAAATATGAGAGTACAAAAAATATTATGAAT [XGTACX_site151] | 6.86 |
| TTATAATATATTACAAGTTCATTCATATAATATGTT [CACACA_negctrl_site1695] | 6.35 |
| ATCTCTTAAATTTTACGTACTTATTTTATCTTCTTA [XGTACX_site8877] | 6.87 |
| ATATTATATATATGATGTACTAAATATATTATTATG [XGTACX_site1703] | 6.45 |
| ATGTTATAAAATATATGTACATATTTATATAAAATA [XGTACX_site5766] | 6.6 |
| ATATATTTATATAAATGTACACGTGAATATATAATA [XGTACX_site1166] | 7.17 |
| TATATAAAAAGTAATTGTACATATATATATATATAT [XGTACX_site7953] | 9.26 |
| TTTATATTCTTTTTTTAACACACAAAAAAAATAAAA [CACACA_site8574] | 6.3 |
| TCTATTAATGAATATACACACATTATATATATATAT [CACACA_site5410] | 9 |
| TATTTTATATTATCATGTACAAAAAAAAAGAAAAGA [XGTACX_site5379] | 6.58 |
| ATAAATAATTAGAATTGTACAAAAATTATATATATG [XGTACX_site5107] | 6.56 |
| ATATGTAAAATGAAGATACATACATACATACATACA [CACACA_negctrl_site715] | 7.53 |
| AATAAATTAGAAGGATGTACTTTGTTTAATATAGAG [XGTACX_site1943] | 6.33 |
| AGGTTATATATGAACAAAAATAAAATATTCATAGGC [TGCATGCA_negctrl_site46] | 6.5 |
